According to the supplement of paper PMC11417369:
The other results are listed elsewhere or left out.

These sequences were tested on PfSIP2 AP2 domain 1 (GST-tagged) (assay: gcPBM binding intensity (ln(normalized median fluorescence intensity)); higher = stronger DNA binding).
In short: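 For binding intensity, the highest Masliner-normalised natural-log median intensity across replicate spots of either probe orientation was taken. Protein bound to the array was stained with Alexa488 anti-GST antibody and scanned at 488 nm. The protein, GST-tagged P. falciparum DNA-binding domains from E. coli at about 25 μg on average, had been applied for 1 h to an Agilent 4 × 180k array of primer-extended double-stranded 36-bp intergenic genomic probes and negative controls.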

Sequence	gcPBM binding intensity (ln)
AAAAAAAATTCACACTGTACAAAAGCATAAATAAAC [XGTACX_site5408]	7.31
TCTGAAACAAGAAAAAGTACACAAATTACAAAACTA [XGTACX_site7641]	7.24
ATATTTACCTTTGTATGTACATATATAAAATATATC [XGTACX_site6367]	7.21
TTTTGTAAAAAGAAAAATTAGAATATATCGTATATA [XGTACX_negctrl_site617]	6.7
TAATAAATACAAAAATGTACACACATATATATATTT [XGTACX_site7430]	7.09
TTATTTATTTATTCATGTACGTGTATTTTTTAAAAA [XGTACX_site7915]	7.28
TATATATATATTATCACACACTCACGTTTGACAAAA [CACACA_site689]	8.54
ATTGGGTACAAATACACACACATATATATATTAAGA [CACACA_site5330]	6.89
AGTGTCATATTAACACGTACATAATTATTGTAGAGA [XGTACX_site568]	7.14
TATTACATACAATATTGTACATATCATATTTTGAAT [XGTACX_site2191]	6.97
ACGGAAAAAGAAAAGGTGCATATGGACACAATATAT	11.3
ATAGAAATATTATATTGTACGAACAGTTATTAACAA [XGTACX_site2137]	7.12
ATTATTTGTTTAAATTCACACACGTATATATATTTA [CACACA_site3050]	7.15
ACATGTAAATGGAAAAGTACTAATAACTTGTATTGG [XGTACX_site5181]	6.98
TTATTTTAATATAAAATACACACTACTATTATAAAT [CACACA_site1470]	6.85
TAATTATTAAAACATTGTACATTATTATAAACAATT [XGTACX_site4489]	6.88
ATATATAAATATATTACACACTTTTTCTTTTTTTTT [CACACA_site7332]	6.93
TTTTCCATAAGAATTACACACAGAAAGGATAAGTAT [CACACA_site105]	7.12
AAACAGCATGGTATACCTATAAAATATATATACTAA [GTGCAC_negctrl_site39]	6.96
CTTATATTAATTATTACACACATATTTATAAATGCA [CACACA_site6501]	7.2
ATTATCCATGCATTTACACACACACTAAAAAAAATT [CACACA_site7848]	7.89
ATGTATATATATTTGTGTACATATTTAGGAAATAAA [XGTACX_site2904]	7.1
AATTAAATTTATATGAATGTCAATTATATTGTTATA [XGTACX_negctrl_site261]	6.68

Sequence	gcPBM binding intensity (ln)
TTGAATTAAAAACATACATGCATATATATATATATA [TGCATGCA_site319]	9.49
TTATAAAATGGGCAAACACACACAAAAAAAAGATAT [CACACA_site8476]	7.27
AATAAATTACTATGTACACACATAAGAGTATAAATA [CACACA_site6940]	7.07
AAAAAGTTACATGGTGGTACTCAAATAAAATATTCT [XGTACX_site5993]	6.94
TTTTTTTTTTTTTGATGTACATAAATTAAGAATTAT [XGTACX_site7789]	7.04
AATATATCTTTTTACGGCAACCATATTTTTCCCATT [CACACA_negctrl_site963]	7
TTTATATGTGAAAAAAGTACAAGGAAAAAATTAAAC [XGTACX_site7269]	7.59
TATTATGTTATATATTGTACATGTTTATTGAAACAA [XGTACX_site5605]	6.91
TTTTTTTTAGTATGAACACACATATATATTATAAAA [CACACA_site2935]	6.94
TATTAACAAAATATAGCACACATAAATATATATTTA [CACACA_site8005]	7.01
AATATAATTATATGTGGTACAGAAATAATATAAAAT [XGTACX_site2366]	7.63
TTCTTTTTTTTTCTGGGTACATATATTCCAATCACT [XGTACX_site4770]	7.6
TTATAAAAGACAAAAGTGCATATATACATATGTATA	8.27
TATAACTTTTATAGGTGTACCCAATATTATATATAG [XGTACX_site7673]	6.97
CCATCTTTTTTACGATGTACAAGTATAAGGTATACG [XGTACX_site2697]	7.04
TTTATATGTTTTGTATTTTTAATAAATATTTTATTA [TGCATGCA_negctrl_site20]	7.06
TATATATAATAAGAAGGTACACGTAAGTAATAATTT [XGTACX_site934]	7.23
AAATAAATAAATTAACGTACATAATAACATTAATAT [XGTACX_site8567]	6.99
ATATATATATATGTATGTACACATATTTTTTAACTT [XGTACX_site431]	9.31
TGTAAAACCTCCTACACACACCAATTAACTATTCTA [CACACA_site7074]	6.9
TATATATATATTATTAGTACTTATTTTTTTTCATAT [XGTACX_site1279]	8.58
TTATATTATAGACACACACACAAAAAAAAAAAAAAA [CACACA_site3816]	6.93
TTATAATTTTAATGTGCACACAATTAAAATATTATA [CACACA_site5172]	9.21

Sequence	gcPBM binding intensity (ln)
TTTTGTTTATGTGTGCATTATATTATATTTTTTATT [TGCATGCA_negctrl_site146]	7.83
TATTGACAAAAAAAAAAAAGGTAAAAAAGAAAGAAA [GTGCAC_negctrl_site418]	6.65
TATAAATAAATATACACACACACATATAAATATGTA [CACACA_site6504]	6.94
TGTAAGAAATTGAGCGCACACATACATCTGTGGGAT [CACACA_site4945]	7.02
TAGTTGCACATGTATACACACAAAAAATATTTTATG [CACACA_site475]	7.68
AAAGAAAGGAATACGACACACAAAAAAAAAATATAT [CACACA_site1934]	7.08
AATAAATATAGGTACACACACAAATATGTACATATC [CACACA_site6976]	7.22
AAGTGGTTATAATCAACACACGTGGAATGTACTTTA [CACACA_site3700]	6.85
AAGAAACCATAATATGCATGCACATATTAATAAATA [TGCATGCA_site693]	7.82
CTACATACAAGAATTAAACACACACTAATTATAAAT [CACACA_site8986]	7
CCTCAATATTCACATACACACAATATCATCGAAGTA [CACACA_site1676]	7.23
GAAACGATTTAATACACACACGTATTATAGATATAT [CACACA_site6666]	6.86
AATAAGCATATACAAACATGCATACATATAAATAAA [TGCATGCA_site338]	6.72
TTTTTTTTTTTTTTGACACACATAATAAAATACAAA [CACACA_site3080]	7.22
TATATATTTGTAACGGGTACGTAGGTGTATATTCCA [XGTACX_site6028]	7.19
AGCCACGTGGTATATACACACATAATCAAATAAAAT [CACACA_site9364]	6.87
AAATATTTTAACGAGAGTACATAATAACAATTTATG [XGTACX_site3865]	7
GAAAGAATAAAATTTACACACATATATAAATACATA [CACACA_site5273]	6.85
AAAAAAAAAAAATACACACACACATATATATATATA [CACACA_site731]	9.54
TTTTTTTTTTTTTATTGTACTAAATTATAGAGGGGA [XGTACX_site2609]	7.66
ATAAAACAACACACTTGTACTAATTTTTTTTTTTTT [XGTACX_site8377]	6.96
TAATTTATAAGGTATAACAACAATTGCATCTATCAC [XGTACX_negctrl_site314]	7.06
TGAATAAATAGACACACACACATATATAAATATGTA [CACACA_site6159]	6.95

Sequence	gcPBM binding intensity (ln)
AACATACATAGACACACACACACACGCACACGCACA [CACACA_site6373]	8.43
GAAAATACGTTTAATCGTACATATATATAATATATA [XGTACX_site4243]	7.21
TATTTACCCTCATGTTGTACTTTTCATTCATTTTAT [XGTACX_site7794]	7.21
ACAAGTTTTTTTTTATCACACACAAAAAAAAAAATA [CACACA_site8377]	7.29
ATTAATTATAATGTATGTACATAACTTTTTTATATT [XGTACX_site5784]	7.15
TTTATTATTTTTAGGAGTACACAAAATAAAACAAAT [XGTACX_site8841]	7.59
TCTATAAAGGAATATACACACATATATAAATATGTA [CACACA_site6332]	6.93
AAAAACAGAAATGTAACACACAAAAATTCTATTTAT [CACACA_site4026]	6.67
TTTTGTTATAAATAATGTACATATTTATTTAAAATT [XGTACX_site6610]	6.88
TATAAAAATGTGCACACACACACATATTTATATTTA [CACACA_site6826]	8.97
AACCTTTATATGTAAAGTACAAAAAAGAGTAAAAAA [XGTACX_site5506]	6.85
AAAATCATTCCAAAGACATGCATTTTGCAAATAAAA [TGCATGCA_site461]	6.75
TATATTATATACCATTGTACATATAATATAGGTTCT [XGTACX_site7047]	6.92
AATATATGTATGTACGCATGTATGTATCTATGTATT [TGCATGCA_site389]	7.5
TTATAATTATATACATGTACATATAATACATATATA [XGTACX_site8904]	7.03
ATATGGGTAATGAATTGTACTCTTTCTTGTTGTTCT [XGTACX_site4487]	6.94
TGTAATAAATAGTACACACACACATATTTATATATC [CACACA_site6770]	7.24
GTATAATTTTCGTATTCACACAAGAATATACTACAT [CACACA_site4877]	7.38
GTATATTTATAGCCTTTATTATATTTAATATTATTA [TGCATGCA_negctrl_site26]	7.01
AGAAAAGTTTAATACAGTACATAAACAAAGTATAGG [XGTACX_site2386]	7.04
